Here are results for 54 compounds from ChEMBL document CHEMBL4888484, “Replenishing the malaria drug discovery pipeline: Screening and hit evaluation of the MMV Hit Generation Library 1 (HGL1) against asexual blood stage Plasmodium falciparum ,using a nano luciferase reporter read-out” (2022).

Structures are written as SMILES. Among all 150,000 compounds or so, about 540 (0.36%) showed an effect of 50% or more. The list shows a part of the results.

In this test the test system is Plasmodium falciparum. As to the kind of experiment: Primary screen in NF54 nanoGlo assay, in single point, at 2uM, 72h; a lower Z score goes with more inhibition. The class given is functional, Erythrocyte. The note with it: timepoint 72 hour.
As a reminder, the % Inhibition is the drop in the measured response relative to a control, in per cent. For `C[C@H](NC(=O)c1ccoc1)C(=O)Nc1cc(C(F)(F)F)ccc1O`, the “% Inhibition” value is recorded as 6% and the Z score is -1.

With `CCc1ccccc1NC(=O)CN1C(=O)CCCc2cc(S(=O)(=O)N3CCCC3)ccc21`, the “% Inhibition” value is reported as -7% and the Z score was found to be 1.16.

With `Cn1c(=O)c2c(-c3ccc(Cl)cc3)n(-c3cccc4cccc(N)c34)cc2n(C)c1=O`, the “% Inhibition” value is listed as 96% and the Z score is -11.21.

As to `Cc1ncsc1CCNC(=O)N(C)C1CCS(=O)(=O)CC1`, the “% Inhibition” value stood at 3% and the Z score is reported as -0.26.

Take `O=C(Nc1ccc(N2CCCCC2)cc1)c1sc2ccccc2c1Cl`: the “% Inhibition” value is -13% and the Z score is on record as 1.73.

Consider `CC(C)(C)C1CCC(CN2CC(O)C(N3CCCC3)C2)CC1` (stereo not drawn), for which the “% Inhibition” value worked out at 16% and the Z score is on record as -2.2.

For `Cc1ccc2c(c1)CCCN2S(=O)(=O)c1ccc(N2CCCC2=O)cc1C`, the “% Inhibition” value is recorded as -2% and the Z score is on record as 0.22.

As for `CCn1nc(C)cc1S(=O)(=O)NCc1noc(C2CC2)n1`, the “% Inhibition” value is listed as -4% and the Z score worked out at 0.55.

Regarding `Cc1nn(C)c2nc(NCc3cc(CC(C)C)no3)sc12`, the “% Inhibition” value is 1% and the Z score is listed as -0.16.

Consider `O=C(N[C@@H]1[C@@H]2CCO[C@@H]2[C@H]1N1CCCCC1)c1cccc(OC(F)F)c1`, for which the “% Inhibition” value was -7% and the Z score is given as 1.04.

For `Cc1cc(NCc2cnc3n2CCC3)ncn1`, the “% Inhibition” value is listed as -4% and the Z score was determined as 0.69.

As for `C/C(=N\S(=O)(=O)c1ccc(Cl)cc1)Nc1ccc(O)c(C)c1C`, the “% Inhibition” value is reported as -11% and the Z score is 1.3.

With `COc1ccc(/C=C/c2nc(-c3ccc(S(=O)(=O)N4CCCC4)cc3)no2)cc1`, the “% Inhibition” value is -5% and the Z score was found to be 0.84.

Turning to `Cc1cn2c(=O)cc(CN3CC[C@](C)(O)[C@@H](O)C3)nc2s1`, the “% Inhibition” value is -9% and the Z score stood at 1.63.

For the compound `CCc1nn(C)c(Cl)c1CN1CCc2nocc2C1`, the “% Inhibition” value is -13% and the Z score came out at 1.17.

`O=C(NC[C@H]1COC2(CCOCC2)O1)c1ccc(OCc2cccs2)cc1`: the “% Inhibition” value is on record as -2% and the Z score stood at 0.29.

Turning to `O=S(=O)(c1ccccc1OC(F)(F)F)N1CC(Oc2cccnc2)C1`, the “% Inhibition” value is listed as -3% and the Z score is on record as 0.36.

As for `COc1ccc(CCNC(=O)CN2CCC3(CC2)[C@H](O)C[C@@H]3OC)cc1`, the “% Inhibition” value is -10% and the Z score stood at 1.98.

`O=C1Cc2cc(S(=O)(=O)N3CCNCC3)ccc2N1`: the “% Inhibition” value is recorded as -4% and the Z score was determined as 0.79.

As to `COc1cn(CC(=O)NC[C@H]2CCCO2)c(CN2CCCCC2)cc1=O`, the “% Inhibition” value is reported as -1% and the Z score worked out at 0.27.

As for `COC(=O)CC[C@H](NC(=O)C1CCCN1c1nc(C)c2ccccc2n1)C(=O)OC` (stereo partly drawn), the “% Inhibition” value is given as -7% and the Z score is 1.31.

For the compound `Cc1cccc(OC[C@@H](O)Cn2c(NC3CCCCC3)nc3c2c(=O)n(C)c(=O)n3C)c1`, the “% Inhibition” value was -2% and the Z score was determined as 0.31.

`CO[C@@H](CNC(=O)C(C)(C)C)c1cc2ccccc2o1`: the “% Inhibition” value is -15% and the Z score came out at 1.73.

Consider `C[C@@H]1CN(CC2OCCO2)C[C@H](C)N1CC1OCCO1`, for which the “% Inhibition” value is on record as -9% and the Z score is recorded as 1.07.

In the case of `O=C(c1csc2nc(-c3ccccc3)cn12)N1CCN[C@@H]2CS(=O)(=O)C[C@@H]21`, the “% Inhibition” value was -9% and the Z score is recorded as 1.67.

For `CS(=O)(=O)N1CCOC2CCCCC21` (stereo not drawn), the “% Inhibition” value is listed as -19% and the Z score was 2.35.

As to `CC(C)c1cc(Br)n(C[C@H]2COCCO2)n1`, the “% Inhibition” value is recorded as 1% and the Z score is reported as -0.23.

Turning to `Cc1ccc(-c2nc(NC(=O)COc3ccccc3C)no2)cc1`, the “% Inhibition” value is recorded as -7% and the Z score turned out to be 1.24.

For the compound `O=C(Cc1csc(NC(=O)C2CCCC2)n1)NC1CCN(Cc2ccccc2)CC1`, the “% Inhibition” value is on record as -17% and the Z score is given as 1.96.

Regarding `c1cn(-c2ccc3c(c2)OCO3)c(-c2ccc(-c3cc[nH]n3)o2)n1`, the “% Inhibition” value is given as -11% and the Z score came out at 2.15.

Take `COCCN(CC1(C)CCOCC1)C(=O)[C@H](C)Oc1ccccc1`: the “% Inhibition” value was 0% and the Z score is -0.01.

Regarding `CC(C)(C)n1nnc(CNC(=O)N[C@H]2CCCc3c(F)cccc32)n1`, the “% Inhibition” value worked out at 6% and the Z score is on record as -1.01.

Take `Cc1cccc([C@@H](NC(=O)c2cccn2C2CC2)C(=O)O)c1`: the “% Inhibition” value was 1% and the Z score is listed as -0.16.

For `C[C@H](NC1CCN(c2ncnc3[nH]cnc23)CC1)c1nnc(N)s1`, the “% Inhibition” value was -7% and the Z score is 1.37.

Regarding `COCCc1ncc(CN2CCC(CC(=O)N(C)C)CC2)cn1`, the “% Inhibition” value was 5% and the Z score is recorded as -0.66.

Consider `Cc1ccc2occ(CC(=O)N[C@H]3CCC(=O)N[C@@H]3c3ccnn3C(C)C)c2c1`, for which the “% Inhibition” value was -11% and the Z score was determined as 1.23.

Consider `C[C@H]1CN(C(=O)c2cc(C3CC3)[nH]n2)CCO1`, for which the “% Inhibition” value is -5% and the Z score turned out to be 0.43.

With `CCn1cc(CC(=O)Nc2ccc(C)cc2)c2cccnc21`, the “% Inhibition” value is on record as -22% and the Z score is 2.54.

For `COCCN1CCC[C@H](NC(=O)C(=O)Nc2cccc(Cl)c2)C1`, the “% Inhibition” value is given as -9% and the Z score amounted to 1.77.

As for `Cc1cc(=O)n(C)cc1NC(=O)NCc1ccco1`, the “% Inhibition” value is on record as 1% and the Z score is on record as -0.08.

Take `CC(C)c1ccc(C#N)c(NCc2noc(C3CC3)n2)n1`: the “% Inhibition” value is recorded as -4% and the Z score was 0.39.

Turning to `COc1ccc(CC(=O)N2CCOCC2C2CCCC2O)cc1` (stereo not drawn), the “% Inhibition” value is -3% and the Z score was determined as 0.33.

Take `C[C@H](O)c1cc2n(n1)CCCN(Cc1ccc(OCCN3CCOCC3)cc1)C2`: the “% Inhibition” value is on record as -3% and the Z score came to 0.67.

Turning to `C=CCCC(=O)N1CCC([C@H]2OCC[C@@H]2NC(=O)C(F)(F)F)CC1`, the “% Inhibition” value is on record as 9% and the Z score is reported as -1.03.

With `CC(C)=CCC/C(C)=C/CN1CC[C@H](O)[C@@H](O)C1`, the “% Inhibition” value worked out at 9% and the Z score is -1.68.

For the compound `COCCN(CC1CC1)C(=O)N[C@@H](C)c1cc(F)cc(F)c1`, the “% Inhibition” value stood at 2% and the Z score is -0.25.

As to `COCc1nc(C)c(C(=O)OCC(C)(C)OCC(C)(C)F)s1`, the “% Inhibition” value worked out at 1% and the Z score is reported as -0.18.

Take `Cc1ccc(CNC(=O)C2CCC2)n1C`: the “% Inhibition” value is on record as -2% and the Z score came to 0.18.

As to `CC(C)OCCCNC(=O)Nc1cccc(Br)c1`, the “% Inhibition” value worked out at 4% and the Z score is recorded as -0.69.

For the compound `O=C(N[C@H]1C[C@H]2OCC[C@@H]12)c1cc(Cl)ccc1F`, the “% Inhibition” value is -2% and the Z score amounted to 0.33.

For the compound `COc1cc(-c2c(-c3ccccc3)ncn2Cc2noc(C(C)C)n2)ccc1O`, the “% Inhibition” value is reported as -12% and the Z score was 2.1.

As for `Cc1cc(C)nc(O[C@H]2CC[C@H](NC(=O)c3ccno3)CC2)n1`, the “% Inhibition” value is -11% and the Z score worked out at 1.94.

Regarding `COC(=O)c1cccc(/N=C(/NCCc2c(C)nn(C)c2C)NC(=O)c2cccc(C)c2)c1`, the “% Inhibition” value is on record as 2% and the Z score is reported as -0.4.

In the case of `O=C(Cn1cnc(-c2nc(-c3ccccc3)cs2)c1)NCc1ccc2c(c1)OCO2`, the “% Inhibition” value was -2% and the Z score is on record as 0.36.
